Test results reported in publication PMC4336329 (PLoS ONE, 2015).
Hit rate of the full screen: of about 310,000 compounds, about 2,200 (0.71%) showed an effect of 50% or more. The effect is printed as a negative number. The list shows a part of the results.

Target: human ether-à-go-go-related gene (hERG) potassium channel (human, UniProt Q12809)
Experiment: primary screen, population patch clamp on CHO cells stably expressing hERG

human ether-à-go-go-related gene (hERG) potassium channel, sequence (Q12809 whole entry, looked up): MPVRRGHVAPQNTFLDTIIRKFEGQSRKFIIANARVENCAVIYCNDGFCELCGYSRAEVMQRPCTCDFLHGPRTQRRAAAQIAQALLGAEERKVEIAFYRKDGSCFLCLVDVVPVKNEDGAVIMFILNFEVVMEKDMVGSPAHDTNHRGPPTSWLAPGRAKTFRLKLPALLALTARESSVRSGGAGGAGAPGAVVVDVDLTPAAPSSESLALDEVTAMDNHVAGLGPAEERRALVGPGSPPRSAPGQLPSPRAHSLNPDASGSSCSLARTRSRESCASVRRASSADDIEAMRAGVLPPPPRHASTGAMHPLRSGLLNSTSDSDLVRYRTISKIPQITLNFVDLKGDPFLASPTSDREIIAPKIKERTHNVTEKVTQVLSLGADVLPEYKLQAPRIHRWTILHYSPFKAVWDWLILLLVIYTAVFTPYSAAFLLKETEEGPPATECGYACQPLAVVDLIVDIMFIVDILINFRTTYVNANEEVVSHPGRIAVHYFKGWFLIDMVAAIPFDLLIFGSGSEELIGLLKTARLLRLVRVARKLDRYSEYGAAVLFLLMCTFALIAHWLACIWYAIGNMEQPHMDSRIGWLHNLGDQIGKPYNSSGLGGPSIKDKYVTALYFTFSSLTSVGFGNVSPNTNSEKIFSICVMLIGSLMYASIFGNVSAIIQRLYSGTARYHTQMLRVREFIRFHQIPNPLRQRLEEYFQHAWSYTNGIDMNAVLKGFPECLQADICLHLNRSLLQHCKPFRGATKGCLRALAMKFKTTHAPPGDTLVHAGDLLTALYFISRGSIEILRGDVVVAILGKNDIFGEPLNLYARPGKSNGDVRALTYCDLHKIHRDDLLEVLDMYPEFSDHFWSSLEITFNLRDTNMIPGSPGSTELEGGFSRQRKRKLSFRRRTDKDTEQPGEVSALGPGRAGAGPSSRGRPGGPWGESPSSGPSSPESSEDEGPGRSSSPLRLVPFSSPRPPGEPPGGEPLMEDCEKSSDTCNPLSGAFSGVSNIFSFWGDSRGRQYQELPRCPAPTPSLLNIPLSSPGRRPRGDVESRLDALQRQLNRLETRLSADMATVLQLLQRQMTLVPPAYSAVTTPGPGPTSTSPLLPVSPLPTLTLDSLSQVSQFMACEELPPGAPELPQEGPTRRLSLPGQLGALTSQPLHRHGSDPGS

Structure (SMILES) | hERG current change (%, negative = inhibition) at 1uM [%]
COc1ccccc1N1C(=O)CC(Sc2ccccc2N)C1=O (stereo not drawn) | 5.02
COc1ccc(NC(=O)Nc2c(C)n(C)n(-c3ccccc3)c2=O)c(OC)c1 | 16.2
COc1ccccc1CNS(=O)(=O)c1ccc(S(=O)(=O)NC2CC2)cc1 | 9.68
O=C(C1CCCO1)N1N=C(c2ccc(Br)cc2)CC1c1ccco1 (stereo not drawn) | 2.44
CC(=O)Nc1cccc(C(=O)OCC(=O)Nc2nnc(-c3ccccc3)o2)c1 | -2.38
C[C@H](NC(=O)c1nc[nH]c1C(=O)NC1CCN(C(=O)OC(C)(C)C)CC1)C(=O)OCc1ccccc1 | 0.735
COc1ccc(/C=C/C(=O)C23CC4CC(CC(C4)C2)C3)cc1CN1CCOCC1 | 5.62
O=C(Nn1cnnc1)c1ccccc1F | 20.7
O=C(NCC1CCCN1S(=O)(=O)c1cccs1)C(=O)Nc1ccccc1 (stereo not drawn) | 19.1
COc1ccc(CC(=O)Nc2cc(Cl)ccc2N2CCCC2)cc1 | 14.7
O=C(c1ccc(Cl)cc1Cl)C1(n2cncn2)Oc2ccccc2C1O (stereo not drawn) | -10.6
CCCN1CCN(CCCNC(=O)C2CCCN(c3nc4ccc(OCC)cc4s3)C2)CC1 (stereo not drawn) | -28.9
C=CCOC(=O)C1=C(C)NC(SCC(=O)Nc2nccs2)=C(C#N)C1c1cccs1 (stereo not drawn) | 4.19
Cc1[nH]n(-c2ccccc2)c(=O)c1C=Nc1ccc(S(=O)(=O)NC(N)=O)cc1 | 5.09
O=C(c1cccc(S(=O)(=O)N2CCN(c3ccccc3)CC2)c1)N1CCCC(C(F)(F)F)C1 (stereo not drawn) | 4.09
COCC(C)n1c(SCC(=O)NNC(=O)c2ccc(F)cc2)nc2ccccc2c1=O (stereo not drawn) | -10.4
Cc1nc(C)c(C(=O)Nc2ccccc2)s1 | 5.97
Brc1ccccc1-c1nnc(-c2cccnc2)o1 | 9.86
CC(=O)c1cccc(NC(=S)NNC(=O)c2ccco2)c1 | 16.5
CO/N=C/C(C#N)=C/c1cc(C(=O)c2ccc(F)cc2)cn1C | 16.2
CC(C)(C)OC(=O)N1CCC[C@H]1c1nnc(SCC(=O)Nc2ccc(Br)cc2)o1 | 4.94
Cn1c(CSc2nc3ccccc3s2)nnc1SCC(=O)NCCCN1CCOCC1 | 12

Structure (SMILES) | hERG current change (%, negative = inhibition) at 1uM [%]
O=C(Nc1ccccc1)Nc1ccccc1-n1ccnc1 | 0.781
CCCn1c(SCC(=O)N2CCN(C(=O)c3ccco3)CC2)nc2ccccc2c1=O | -84.8
COc1ccc(N(C)C(=O)CCS(=O)(=O)c2cccc3nonc23)cc1 | 11.5
COC(=O)CNC(=O)CSc1nnc(C)c(=O)[nH]1 | 12.4
Cc1ccc(S(=O)(=O)NC(=NC(C)C(=O)O)c2ccccc2)cc1 (stereo not drawn) | 6.96
Cc1ccc(C(=O)NC(=S)Nc2ccc(N3CCOCC3)cc2)cc1C | 3.84
CCOc1ccc(S(=O)(=O)Nc2ccc3c(c2)OCO3)cc1 | 11.5
O=C1N(C2CCCC2)C[C@@H]2C[C@@H](c3cccn3-c3nccs3)N3CCC[C@@]123 | -60.3
CSc1ccccc1NC(=O)CCn1c(=O)sc2ccccc21 | 13.2
Cc1cc(C)n2nc(SCC(=O)N/N=C/c3cccc(Br)c3)nc2n1 | 8.63
CCCN(CCC)C(=O)c1cc(S(=O)(=O)N2CCCCC2)c[nH]1 | -8.85
C[NH+](C)CC(C)(C)CNS(=O)(=O)c1cccc(Cl)c1Cl.[Cl-] | 7.97
C/C(CC(=O)Nc1ccccc1)=N\NC(=O)COc1ccc(C)cc1Br | 3.03
O=C(CNS(=O)(=O)c1ccccc1)NNC(=O)C(Cl)Cl | 14.1
O=C(CSc1n[nH]c(=O)n1C1CC1)N1N=C(c2ccc(Cl)cc2)CC1c1ccco1 (stereo not drawn) | 5.88
Cc1ccc(C(=O)COC(=O)CN2C(=O)C3C4C=CC(C4)C3C2=O)cc1C (stereo not drawn) | 6.5
COC(=O)c1[nH]c2ccc(Br)cc2c1NC(=O)Oc1ccccc1 | 16.4
NS(=O)(=O)c1ccc(CCNC(=O)CSCc2ccccc2)cc1 | 9.64
O=C(O)c1cc(S(=O)(=O)NC(CO)C(O)c2ccc([N+](=O)[O-])cc2)ccc1Br (stereo not drawn) | 10.9
COc1ccc(-c2csc3ncnc(NCCN4CCOCC4)c23)cc1 | 0.221
O=C(NC12CC3CC(CC(C3)C1)C2)c1cc([N+](=O)[O-])ccc1N1CCOCC1 | 7.7
Cc1cc(C)cc(SCc2noc(C(=O)NCCCN3CCOCC3)c2C(=O)NCCCN2CCOCC2)c1 | -1.87

Structure (SMILES) | hERG current change (%, negative = inhibition) at 1uM [%]
O=C(CN(CC1CCCO1)C(=O)CNS(=O)(=O)c1ccc(Cl)cc1)NCc1ccccc1 (stereo not drawn) | 12.3
N#CC(Cc1ccccc1)(Cc1ccccc1)C(=O)NN | 13.5
COC(=O)C1CCN(CC(=O)NC(=O)NC2CCCCC2)CC1 | 7.03
COc1ccc2c(c1)cc(C(=O)N[C@H](C(=O)N1CCC(C(=O)O)CC1)C(C)C)n2C | 14.5
CN(C(=O)CSc1nc2ccccc2n1CCc1ccccc1)C1CCS(=O)(=O)C1 (stereo not drawn) | -1.54
CC1(C)CCN(Cc2ccccc2)C1CC#N (stereo not drawn) | 12.4
CCOC(=O)CNC(=O)Cn1cnc2c(nnn2-c2ccccc2)c1=O | 5.88
CC1=Nn2c(nnc2-c2ccccc2F)SC1 | 16.2
O=C(COC(=O)C1(c2ccccc2F)CCCC1)NCc1cccs1 | 7.08
CCC(c1nnnn1Cc1ccc(OC)cc1)N1CCN(c2ccc(OC)cc2)CC1.Cl (stereo not drawn) | 6.43
CC(C)CCN1CCC(C)(NC(=O)c2ccccc2)C1=O (stereo not drawn) | 5.15
O=C(Cn1nc(C(F)(F)F)c2c1CCCC2)Nc1ccc2c(c1)OCO2 | 5.71
COC(=O)Cn1nc(-c2ccccc2)c2cc(Cl)ccc21 | 1.95
O=C(O)C(=O)O.c1ccc(CN2CCN(CCOCCOc3cccc4ccccc34)CC2)cc1 | 5.11
CN(C)c1ccc(CNC(=O)C2CCN(S(=O)(=O)c3ccc4c(c3)CCCC(=O)N4)CC2)cc1 | 12.2
Cc1cc(OC(C)C(=O)NCc2ccncc2)c2c(C)c(C)c(=O)oc2c1 (stereo not drawn) | -17.5
c1ccc2c(c1)CCN(c1nc3cc4c(cc3s1)OCCO4)C2 | 12.1
COc1ccc(CCn2nnnc2C(CC(C)C)N2CCN(c3ncccn3)CC2)cc1OC (stereo not drawn) | -0.474
CCc1nnc(NC(=O)CCN2C(=O)c3ccccc3C2=O)s1 | -12.6
O=C(CSc1nnc(COc2ccccc2)o1)c1ccccc1 | 8.53
O=C(CCNc1n[nH]c(=O)[nH]c1=O)N/N=C\c1cccc(OCc2ccccc2)c1 | 9.98
Cc1cc(C)n(CC(=O)Nc2ccc3c(c2)OCO3)c(=O)c1C#N | -1.67

Structure (SMILES) | hERG current change (%, negative = inhibition) at 1uM [%]
CCN(Cc1ccccc1)S(=O)(=O)c1cc(C(=O)NCC2CCCCC2)ccc1OC | 10.2
OCc1cc(-c2ccc(Cl)c(Cl)c2)on1 | 6.67
O=C(CC(=O)Nc1cccc(F)c1)Nc1cccc(F)c1 | 12.6
CC(Sc1ccccc1)C(=O)Nc1ccccc1C(=O)N1CCOCC1 (stereo not drawn) | 10.4
C=C1C2C[C@@]3([C@@H]1O)[C@@H](C[C@@H]2O)[C@@]12C4[C@@H]3C[C@@H]1[C@@](C)(CC[C@@H]2O)CN4CC | 17.8
Cc1cccc(NC(=O)CN2C(=O)N/C(=C/c3ccc(-c4cccc(C(=O)O)c4C)o3)C2=O)c1 | 16.7
CCOC(=O)c1c(NC(=O)CSc2nc3cc(Cl)ccc3s2)sc(C(C)=O)c1C | -0.0002
COc1ccc(CCNC(=O)c2ccccc2NS(=O)(=O)c2cc(C(=O)O)ccc2OC)cc1 | 13
O=[N+]([O-])c1cccc(-c2nnc3ccccn23)c1 | 1.97
COc1cc(NC(=O)c2cc(S(=O)(=O)N3CCCCC3)c[nH]2)cc(OC)c1 | 13.1
Cc1ccc(NC(=O)Nc2ccc3c(c2)C(=O)OC3)cc1Cl | 12.1
Cc1cc2[nH]c(=S)[nH]c2cc1C | -15.5
CCN(CC)c1ccc(/C=N/NC(=O)c2ccco2)cc1 | 11.2
Cc1cccc(NCc2ccc(N(C)C)cc2)n1 | 12.2
COCc1cc(=O)[nH]c(/N=C(\N)Nc2cccc(C)c2)n1 | 9.75
Cc1c(Cl)cccc1Nc1nc(N)nc(CSc2ncccn2)n1 | 10.7
COc1cc(OC)cc(C(=O)NC(C)CCc2ccccc2)c1 (stereo not drawn) | 8.33
Cc1cccc(NC(=O)CSCC(=O)Nc2cc(Cl)ccc2N2CCOCC2)c1 | 6.68
COc1ccc(NC(=O)c2cc(Cl)ccc2NC(=O)c2ccco2)c(OC)c1 | -24.5
Cc1ccccc1NC(=O)CC1S/C(=N/c2nccs2)N(C)C1=O (stereo not drawn) | 7.1
CCC(C)c1ccccc1NC(=O)Cc1coc2cc3c(cc12)CCC3 (stereo not drawn) | -0.676
